We go through 55 molecules from ChEMBL document CHEMBL5308541, “MAIP: An Open-Source Tool to Enrich High-Throughput Screening Output and Identify Novel, Druglike Molecules with Antimalarial Activity” (ACS Med Chem Lett, 2023).

About 540 (0.36%) of roughly 150,000 compounds showed an effect of 50% or more. This is one part of the list.

In this assay the test system is Plasmodium falciparum. Kind of assay: Primary screen in NF54 nanoGlo assay, in single point, at 2uM, 72h; a lower Z score goes with more inhibition. The format is functional, Erythrocyte. As to conditions: timepoint 72 hour.
Broadly, the % Inhibition is the change of the read-out against control, counted positive when it falls. For `C1=C(c2ccccc2)CCN(Cc2cccc(OC3CCNCC3)c2)C1`, the “% Inhibition” value is recorded as 2% and the Z score is -0.38.
In the same order, the values of `Cn1nccc1-c1ccnc(NCC23CCCC2NCC3)n1` (stereo not given) are -4% and 0.68.
The like results for `Fc1ccc(C2=CCN(C[C@@H]3CCCN4CCCC[C@H]34)CC2)cc1` were, in that order, 0% and -0.03.
The like results for `O=C(NCC1CNCCC1c1ccc(F)cc1)N1CCC2(CCNCC2)CC1` (stereo not given) were, in that order, 6% and -0.88.
Turning to `CCN1CCN(c2cccc(NCc3cncs3)c2)CC1`, the “% Inhibition” value is on record as -3% and the Z score is given as 0.51.
Regarding `O=C(Cc1c[nH]c2ccccc12)N(CCN1CCCC1)[C@H]1CCCNC1`, the “% Inhibition” value is 4% and the Z score is recorded as -0.66.
The like results for `O=C(NCC1CCN(CCc2c[nH]c3ccccc23)CC1)c1cnc(C2CC2)nc1` were, in that order, 10% and -1.71.
The like results for `C1=C(c2cn(Cc3ccccc3)c3ccccc23)CCNC1` were, in that order, -6% and 0.84.
In the same order, the values of `CC[C@@H](c1ccc(F)cc1)N1CCC(c2c[nH]c3ccc(C(N)=O)cc23)CC1` are -8% and 1.61.
As for `CN1CCC(N2C[C@@H]3C[C@H](C2)c2ccc(-c4ccc5ccccc5c4)c(=O)n2C3)CC1`, the “% Inhibition” value is recorded as -2% and the Z score turned out to be 0.26.
The like results for `c1ccc(N2CC[C@H](NCCc3c[nH]cn3)C2)cc1` were, in that order, -4% and 0.75.
Regarding `CCOC(C)C(=O)N1C2CCC1C(C(=O)O)C2` (stereo not given), the “% Inhibition” value was -11% and the Z score stood at 1.67.
In the same order, the values of `O=C1NCC[C@@H]1c1cccc(Br)c1` are 0% and 0.06.
In the same order, the values of `CC(C)Oc1cncc(N2CCN(C3CC4CCC(C3)N4C)CC2)n1` (stereo not given) are 12% and -2.09.
In the same order, the values of `OC1CCCN(CCCNC[C@@H]2[C@H]3CNC[C@@H]23)C1` (stereo not given in full) are -11% and 2.39.
As for `C[C@H](NCc1ccccc1N(C)C1CCN(C)CC1)c1nc(-c2cccc(F)c2)no1`, the “% Inhibition” value is given as 6% and the Z score is listed as -1.22.
In the same order, the values of `CN1CCC2CCC(C1)N2c1nc(N)c2cnn(C)c2n1` (stereo not given) are -4% and 0.87.
For the molecule `CC(c1cccc(C#N)c1)N1CCN(C2CC3CCC(C2)N3C)CC1` (stereo not given), the “% Inhibition” value is -5% and the Z score amounted to 0.91.
Turning to `Cc1cccc2c(CCN[C@@H](C)CN3CCOCC3)c[nH]c12`, the “% Inhibition” value is -2% and the Z score was 0.37.
In the case of `CCNc1nc(C)cc(N2CCNCC2)n1`, the “% Inhibition” value is on record as -5% and the Z score is recorded as 0.78.
In the case of `O=C(Cc1c[nH]c2ccccc12)N1CCN(Cc2nc(-c3cccc(C(F)(F)F)c3)no2)CC1`, the “% Inhibition” value is on record as -2% and the Z score is on record as 0.33.
In the same order, the values of `Fc1ccc2ccnc(N3C[C@H]4CNC[C@H]4C3)c2c1` are -9% and 1.59.
On to `O=C(Cc1c[nH]c2cc(F)ccc12)N(CCN1CCCC1)Cc1ccc(Cl)cc1`, for which the “% Inhibition” value came to 4% and the Z score is on record as -0.78.
The like results for `C[C@@H](Cc1ccc(F)cc1Cl)NCC1(CCO)CCOCC1` were, in that order, -1% and 0.11.
In the same order, the values of `Cc1cc(C)nc(Nc2nc(CC(=O)N3CCN(C4CCCCC4)CC3)cs2)n1` are 2% and -0.46.
The like results for `Oc1ccc(C2=CCN(Cc3cccc4[nH]ccc34)CC2)cc1` were, in that order, 36% and -6.16.
`Cc1cc2c(N3CCC(N4CC5CCNC5C4)CC3)ncnc2s1` (stereo not given): the “% Inhibition” value is on record as -2% and the Z score is 0.43.
Regarding `O=C(Cc1nnc(-c2ccc3ncccc3c2)o1)N1CCN(C2CCCCC2)CC1`, the “% Inhibition” value is reported as 4% and the Z score is listed as -0.68.
In the same order, the values of `Cc1[nH]c2ccc(F)cc2c1CCNCc1ccncc1` are -6% and 0.94.
The like results for `CN(c1ncc(Br)cc1C#N)C1CCNCC1` were, in that order, -3% and 0.53.
The like results for `NCCc1nnc2c(=O)n(C3CC3)ccn12` were, in that order, -2% and 0.43.
Take `Cc1ccc2c(CCN[C@@H](C)CN3CCN(C)CC3)c(C)[nH]c2c1C`: the “% Inhibition” value is listed as 2% and the Z score was -0.38.
Turning to `Clc1ccc(CNCCN2CCC3(C2)OCCO3)c2ncccc12`, the “% Inhibition” value is listed as -1% and the Z score was 0.17.
In the same order, the values of `c1cc(-c2cc[nH]n2)cc(-c2ccccc2N2CCNCC2)c1` are -5% and 0.79.
The like results for `Cc1nnc(CN2C3CCC2CC(n2cc(Br)cn2)C3)n1C` (stereo not given) were, in that order, -11% and 1.65.
In the same order, the values of `Cc1cccnc1NCCNC[C@@H]1CCCN2CCCC[C@H]12` are -9% and 1.54.
On to `Nc1ncc(C(=O)NC2COCC2N2CCCCC2)c(-c2ccccc2)n1` (stereo not given), for which the “% Inhibition” value amounted to 12% and the Z score is -2.65.
Turning to `CN(C)CC12CNCC1CN(c1ccnc3cc(Cl)ccc13)C2` (stereo not given), the “% Inhibition” value was 97% and the Z score is recorded as -19.2.
Consider `Cc1cc(C)c(CNc2ccc(-c3ccc(F)cc3)nn2)c(=O)[nH]1`, for which the “% Inhibition” value is reported as -4% and the Z score is given as 0.66.
In the same order, the values of `CN1C2CCC1CC(OC(=O)C1CCC(C(=O)OC3CC4CCC(C3)N4C)(c3ccccc3)c3ccccc31)C2` (stereo not given) are 47% and -7.18.
`OCCNc1cc(N2CCC3(O)CCNCC3C2)ncn1` (stereo not given): the “% Inhibition” value is 5% and the Z score was -0.83.
The like results for `O=C(NC1COCC1N1CCCC1)c1ccc2c3c([nH]c2c1)CCCC3` (stereo not given) were, in that order, 9% and -1.33.
The like results for `O=C(C[C@H]1CCCc2ccccc21)N1CCCN(C(=O)Oc2ccccc2)CC1` were, in that order, 11% and -2.37.
In the same order, the values of `CN(C)c1ncc(CNCCc2c[nH]c3cc(F)c(Cl)cc23)cn1` are -2% and 0.3.
Take `c1cnn(-c2ccc(CNC3(c4nc(-c5ccsc5)no4)CCCCC3)cc2)c1`: the “% Inhibition” value worked out at 0% and the Z score was 0.05.
As to `Oc1cccc(CNC[C@H](O)c2cccc(Br)c2)c1Cl`, the “% Inhibition” value was found to be 10% and the Z score is given as -1.74.
The like results for `CO[C@H]1C[C@@H](CN2CCCC2)N(C(=O)Cc2c[nH]c3ncccc23)C1` were, in that order, -7% and 1.03.
The like results for `O[C@@H](CNC1(c2ccccc2)CC1)C(F)(F)F` were, in that order, -3% and 0.54.
As for `N#Cc1ccc(-c2cccc(C(=O)NCC3CCNCC3)c2)cc1Cl`, the “% Inhibition” value is -6% and the Z score is reported as 1.26.
As to `CN1CCN(c2ccc(C(F)(F)F)cc2NCc2cnc[nH]2)CC1`, the “% Inhibition” value came out at 52% and the Z score was -7.95.
In the same order, the values of `O=C(Nc1cnc(N2CCNCC2)nc1)C12CCCC1NCC2` (stereo not given) are -7% and 1.38.
As for `Nc1nc(N2CCC3CCC(C2)N3)c2c[nH]nc2n1` (stereo not given), the “% Inhibition” value was 1% and the Z score is reported as -0.12.
In the same order, the values of `CC(Cc1ccc(F)cc1)NCC(O)c1ccsc1` (stereo not given) are 6% and -1.13.
In the same order, the values of `Fc1ccc2nc(C(F)F)nc(N[C@H]3CCNC4(CCC4)C3)c2c1` are 7% and -1.3.
The like results for `CC(C)(O)c1cncc(-c2ccc(C(=O)N[C@H]3CN4CCC3CC4)cc2)c1` were, in that order, -5% and 1.16.
